Results from publication PMC3128105.
These are yes or no findings as the source states them, for the method shown. Some entries that bind do so weakly or less than the wild type. Tags and fused reporters may be left off the sequences shown.

Sequences of proteins named here, by UniProt entry; tags and fusion partners are left off.
UniProt P41916: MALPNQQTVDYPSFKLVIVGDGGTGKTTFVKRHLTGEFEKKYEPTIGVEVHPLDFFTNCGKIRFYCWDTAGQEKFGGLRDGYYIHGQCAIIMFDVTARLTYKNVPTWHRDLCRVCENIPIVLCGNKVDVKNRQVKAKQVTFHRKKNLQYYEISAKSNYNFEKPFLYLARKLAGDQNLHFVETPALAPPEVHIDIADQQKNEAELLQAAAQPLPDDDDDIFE

T1: MOS14 N-terminus (amino acid 1-281), bait fusion (Arabidopsis) (UniProt Q8GUL2)
T1 sequence: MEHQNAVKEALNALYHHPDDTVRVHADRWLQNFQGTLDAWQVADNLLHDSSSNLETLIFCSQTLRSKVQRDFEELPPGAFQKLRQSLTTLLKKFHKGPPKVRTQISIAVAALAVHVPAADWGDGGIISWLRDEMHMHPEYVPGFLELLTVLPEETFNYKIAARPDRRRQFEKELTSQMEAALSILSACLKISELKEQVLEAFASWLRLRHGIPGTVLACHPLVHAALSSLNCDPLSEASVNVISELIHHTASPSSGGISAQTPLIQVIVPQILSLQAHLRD

T2: MOS14 C-terminus (amino acid 282-958), bait fusion (Arabidopsis) (UniProt Q8GUL2)
T2 sequence: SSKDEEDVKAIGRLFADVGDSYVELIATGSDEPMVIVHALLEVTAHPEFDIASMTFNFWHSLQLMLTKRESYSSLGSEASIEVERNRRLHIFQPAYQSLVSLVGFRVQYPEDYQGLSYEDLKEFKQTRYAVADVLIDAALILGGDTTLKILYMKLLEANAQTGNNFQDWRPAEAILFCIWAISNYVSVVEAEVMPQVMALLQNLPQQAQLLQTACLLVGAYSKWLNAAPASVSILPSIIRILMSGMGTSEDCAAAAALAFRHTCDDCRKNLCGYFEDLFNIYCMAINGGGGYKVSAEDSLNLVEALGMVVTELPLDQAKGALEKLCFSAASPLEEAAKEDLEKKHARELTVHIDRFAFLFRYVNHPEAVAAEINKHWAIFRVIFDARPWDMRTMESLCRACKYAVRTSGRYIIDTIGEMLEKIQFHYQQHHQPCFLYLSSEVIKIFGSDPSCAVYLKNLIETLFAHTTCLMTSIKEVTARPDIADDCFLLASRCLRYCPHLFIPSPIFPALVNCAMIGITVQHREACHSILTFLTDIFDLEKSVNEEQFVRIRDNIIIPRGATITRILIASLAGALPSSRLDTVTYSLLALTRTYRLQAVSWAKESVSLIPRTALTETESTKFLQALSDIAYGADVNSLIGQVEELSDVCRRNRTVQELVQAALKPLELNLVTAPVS

B1: AtRS2Z33 (protein, UniProt Q8VYA5 1-290)
chain: MPRYDDRYGNTRLYVGRLSSRTRTRDLERLFSRYGRVRDVDMKRDYAFVEFGDPRDADDARHYLDGRDFDGSRITVEFSRGAPRGSRDFDSRGPPPGAGRCFNCGVDGHWARDCTAGDWKNKCYRCGERGHIERNCKNSPKKLRRSGSYSRSPVRSRSPRRRRSPSRSLSRSRSYSRSRSPVRRRERSVEERSRSPKRMDDSLSPRARDRSPVLDDEGSPKIIDGSPPPSPKLQKEVGSDRDGGSPQDNGRNSVVSPVVGAGGDSSKEDRSPVDDDYEPNRTSPRGSESP
B2: AtRSZ21 (protein, UniProt O81127 1-187)
chain: MTRVYVGNLDPRVTERELEDEFKAFGVLRNVWVARRPPGYAFLEFDDERDALDAISALDRKNGWRVELSHKDKGGRGGGGGRRGGIEDSKCYECGELGHFARECRRGRGSVRRRSPSPRRRRSPDYGYARRSISPRGRRSPPRRRSVTPPRRGRSYSRSPPYRGSRRDSPRRRDSPYGRRSPYANGV
B3: AtRS31 (protein, UniProt P92964 1-264)
chain: MRPVFVGNFEYETRQSDLERLFDKYGRVDRVDMKSGYAFVYFEDERDAEDAIRKLDNFPFGYEKRRLSVEWAKGERGRPRGDAKAPSNLKPTKTLFVINFDPIRTKEHDIEKHFEPYGKVTNVRIRRNFSFVQFETQEDATKALEATQRSKILDRVVSVEYALKDDDERDDRNGGRSPRRSLSPVYRRRPSPDYGRRPSPGQGRRPSPDYGRARSPEYDRYKGPAAYERRRSPDYGRRSSDYGRQRSPGYDRYRSRSPVPRGRP
B4: AtSR34 (protein, UniProt O22315 1-303)
chain: MSSRSSRTVYVGNLPGDIREREVEDLFSKYGPVVQIDLKVPPRPPGYAFVEFDDARDAEDAIHGRDGYDFDGHRLRVELAHGGRRSSDDTRGSFNGGGRGGGRGRGDGGSRGPSRRSEFRVLVTGLPSSASWQDLKDHMRKGGDVCFSQVYRDARGTTGVVDYTCYEDMKYALKKLDDTEFRNAFSNGYVRVREYDSRKDSRSPSRGRSYSKSRSRSRGRSVSRSRSRSRSRSRSPKAKSSRRSPAKSTSRSPGPRSKSRSPSPRRSRSRSRSPLPSVQKEGSKSPSKPSPAKSPIHTRSPSR
B5: MOS14 N-terminus (amino acid 1-281), prey fusion (domain or fragment, UniProt Q8GUL2 1-281)
chain: T1 sequence
B6: MOS14 C-terminus (amino acid 282-958), prey fusion (domain or fragment, UniProt Q8GUL2 282-958)
chain: T2 sequence

What follows are binders tested against T1, MOS14 N-terminus (amino acid 1-281), bait fusion (Arabidopsis) (assay: two-hybrid; MOS14 fragments in the bait vector (pGBKT7a), SR proteins in the prey vector (pGADT7a); yeast strain PJ694α; growth on synthetic dropout medium).

| Binder | binding |
| --- | --- |
| B1 | no binding |
| B2 | no binding |
| B3 | no binding |
| B4 | no binding |

The binders below were run against T2, MOS14 C-terminus (amino acid 282-958), bait fusion (Arabidopsis) in the same assay as above.

| Binder | binding |
| --- | --- |
| B1 | binds |
| B2 | binds |
| B3 | binds |
| B4 | binds |

The binders below were run against AtRAN1 (Arabidopsis (from the name AtRAN1)) (UniProt P41916) (assay: two-hybrid; AtRAN1 in pGBKT7a, MOS14 fragments in pGADT7a; yeast strain PJ694α; synthetic dropout medium with 3 mM 3-AT).

| Binder | binding |
| --- | --- |
| B5 | binds |
| B6 | no binding |
